Drawing on the supplement of paper PMC4604168 (melanoma cell lines), this text covers cell count for 15 molecules.

The other results are listed elsewhere or left out. Single values are uncertain, as repeats are few or missing.
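Also: cells treated in 1,536-well plates, then fixed and DAPI-stained, with nuclei counted from automated high-throughput microscope images.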

The test concerns WM3619. Kind of test: cell count relative to DMSO control; melanoma cells; higher = more viable cells. The note with it: library dose: standard library concentration; 72 h.
Turning to `C=CCNC1=C2C[C@@H](C)C[C@H](OC)[C@H](O)[C@@H](C)/C=C(\C)[C@H](OC(N)=O)[C@@H](OC)/C=C\C=C(/C)C(=O)NC(=CC1=O)C2=O` [Tanespimycin] + Cc1cc(SCc2sc(-c3ccc(C(F)(F)F)c(F)c3)nc2C)ccc1OCC(=O)O [GW0742] (first compound 0.01 µM, partner dose 10 µM), the cell count is 78.4%.

As to `C=C(c1ccc(C(=O)O)cc1)c1cc2c(cc1C)C(C)(C)CCC2(C)C` [Bexarotene] + Cc1cc(SCc2sc(-c3ccc(C(F)(F)F)c(F)c3)nc2C)ccc1OCC(=O)O [GW0742] (first compound 10 µM, partner dose 10 µM), the cell count is 88.3%.

`Nc1cccc2c1CN(C1CCC(=O)NC1=O)C2=O` (stereo not given) [lenalidomide] + Cc1cc(SCc2sc(-c3ccc(C(F)(F)F)c(F)c3)nc2C)ccc1OCC(=O)O [GW0742] (first compound 5 µM, partner dose 10 µM) came in with a cell count of 95.3%.

Molecule `CC(C)(C)c1cnc(CSc2cnc(NC(=O)C3CCNCC3)s2)o1` + Cc1cc(SCc2sc(-c3ccc(C(F)(F)F)c(F)c3)nc2C)ccc1OCC(=O)O [GW0742] (first compound 0.05 µM, partner dose 10 µM) showed a cell count of 63.9%.

Molecule `Cc1cc(SCc2sc(-c3ccc(C(F)(F)F)c(F)c3)nc2C)ccc1OCC(=O)O` + O=C(Oc1ccc([N+](=O)[O-])cc1)N1CCC(C(O)(c2ccc3c(c2)OCO3)c2ccc3c(c2)OCO3)CC1 [JZL184] (first compound 10 µM, partner dose 5 µM) registered a cell count of 111%.

Regarding `CS(=O)(=O)c1ccc(C(=O)Nc2ccc(Cl)c(-c3ccccn3)c2)c(Cl)c1` [vismodegib] + C/C(O)=C(\C#N)C(=O)Nc1cc(Br)ccc1Br [LFM-A13] (first compound 5 µM, partner dose 10 µM), the cell count was found to be 93.3%.

`N#CC[C@H](C1CCCC1)n1cc(-c2ncnc3[nH]ccc23)cn1` [ruxolitinib] + Cc1cc(SCc2sc(-c3ccc(C(F)(F)F)c(F)c3)nc2C)ccc1OCC(=O)O [GW0742] (first compound 5 µM, partner dose 10 µM) came in with a cell count of 92.9%.

Turning to `Cn1sc(=O)n(Cc2ccccc2)c1=O` + C/C(O)=C(\C#N)C(=O)Nc1cc(Br)ccc1Br [LFM-A13] (first compound 2 µM, partner dose 10 µM), the cell count stood at 71.6%.

`NC(=O)c1ccc(N(C(N)=O)c2c(F)cccc2F)nc1-c1ccc(F)cc1F` + C/C(O)=C(\C#N)C(=O)Nc1cc(Br)ccc1Br [LFM-A13] (first compound 2 µM, partner dose 10 µM) showed a cell count of 101%.

Regarding `C[C@@H](N)c1ccc(C(=O)Nc2ccnc3[nH]ccc23)cc1` + Cc1cc(SCc2sc(-c3ccc(C(F)(F)F)c(F)c3)nc2C)ccc1OCC(=O)O [GW0742] (first compound 2 µM, partner dose 10 µM), the cell count is 103%.

Turning to `O=C(O)[C@@H]1[O][Sb](=[O])([O][Sb]2(=[O])[O][C@H]([C@H](O)CO)[C@H](O)[C@H](C(=O)O)[O]2)[O][C@H]([C@H](O)CO)[C@@H]1O` (stereo not given in full) [stibogluconate] + O=C(Oc1ccc([N+](=O)[O-])cc1)N1CCC(C(O)(c2ccc3c(c2)OCO3)c2ccc3c(c2)OCO3)CC1 [JZL184] (first compound 10 µM, partner dose 5 µM), the cell count worked out at 120%.

For the molecule `Cn1c(=O)n(-c2ccc(C(C)(C)C#N)cc2)c2c3cc(-c4cnc5ccccc5c4)ccc3ncc21` + O=C(Oc1ccc([N+](=O)[O-])cc1)N1CCC(C(O)(c2ccc3c(c2)OCO3)c2ccc3c(c2)OCO3)CC1 [JZL184] (first compound 0.02 µM, partner dose 5 µM), the cell count was 48.1%.

`COc1ccc2c(c1)CCC1C2CCC2(C)C(NCCCCCCN3C(=O)C=CC3=O)CCC12` (stereo not given) + O=C(Oc1ccc([N+](=O)[O-])cc1)N1CCC(C(O)(c2ccc3c(c2)OCO3)c2ccc3c(c2)OCO3)CC1 [JZL184] (first compound 2 µM, partner dose 5 µM) gave a cell count of 63.2%.

As for `NC(=O)Nc1cc(-c2cccc(F)c2)sc1C(=O)N[C@H]1CCCNC1` + C/C(O)=C(\C#N)C(=O)Nc1cc(Br)ccc1Br [LFM-A13] (first compound 0.1 µM, partner dose 10 µM), the cell count was 15.4%.

With `NCC(=O)Nc1ccc(-n2nc(C(F)(F)F)cc2-c2ccc3c(ccc4ccccc43)c2)cc1` + O=C(Oc1ccc([N+](=O)[O-])cc1)N1CCC(C(O)(c2ccc3c(c2)OCO3)c2ccc3c(c2)OCO3)CC1 [JZL184] (first compound 5 µM, partner dose 5 µM), the cell count was found to be 43.8%.
